The other results are listed elsewhere or left out. Most values come without repeats; read them as rough.
tested on: A375; assay: cell count relative to DMSO control; melanoma cells; higher = more viable cells; conditions: library dose: standard library concentration; 72 h
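Note: cells treated in 1,536-well plates, then fixed and DAPI-stained, with nuclei counted from automated high-throughput microscope images.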

SMILES | cell count
CN(c1ncccc1CNc1nc(Nc2ccc3c(c2)CC(=O)N3)ncc1C(F)(F)F)S(C)(=O)=O + Cc1cc(N2CCOCC2)cc2[nH]c(-c3c(NC[C@@H](O)c4cccc(Cl)c4)cc[nH]c3=O)nc12 [BMS536924] (first compound 0.4 µM, partner dose 1 µM) | 103%
CS(=O)(=O)c1ccc(C(=O)Nc2ccc(Cl)c(-c3ccccn3)c2)c(Cl)c1 [vismodegib] + COc1cc2c(Oc3ccc4[nH]c(C)cc4c3F)ncnc2cc1OCCCN1CCCC1 [cediranib] (first compound 5 µM, partner dose 2 µM) | 140%
CN(c1ncccc1CNc1nc(Nc2ccc3c(c2)CC(=O)N3)ncc1C(F)(F)F)S(C)(=O)=O + COCC[n+]1c2c(n(Cc3cnccn3)c1C)C(=O)c1ccccc1C2=O [YM155] (first compound 0.4 µM, partner dose 0.002 µM) | 67.3%
CCCS(=O)(=O)Nc1ccc(F)c(C(=O)c2c[nH]c3ncc(Cl)cc23)c1F + OCCn1cc(-c2cnc3nnn(Cc4ccc5ncccc5c4)c3n2)cn1 [PF04217903] (first compound 0.4 µM, partner dose 5 µM) | 94.9%
CS(=O)(=O)c1ccc(C(=O)Nc2ccc(Cl)c(-c3ccccn3)c2)c(Cl)c1 [vismodegib] + Cc1nc(Nc2ncc(C(=O)Nc3c(C)cccc3Cl)s2)cc(N2CCN(CCO)CC2)n1 [dasatanib] (first compound 5 µM, partner dose 0.02 µM) | 79.1%
